Experimental data taken from PubChem BioAssay AID1745845 (National Center for Advancing Translational Sciences (NCATS), 2022).
The campaign covered roughly 360,000 compounds. About 2,600 (0.72%) were called active. The shares of active, inactive and inconclusive entries below differ from those in the screen. The call rests on the fitted dose curve; in most records, active means well fitted inhibition curve with a large enough effect; inconclusive means small, poorly fitted or top-dose-only effect; inactive means no such curve, though single readings can be large or run the other way. Where the call is inconclusive, the potency comes from a doubtful curve fit.
Potency means the concentration at half of the fitted maximal effect; tags describe the fitted curve by direction and shape.

Assay: Primary qHTS for Inhibitors of ATXN expression; further: nearly all actives have a fitted effect of over 55% in size
Settings: HEK-293 ATXN2-luciferase reporter, luminescence, 24 h; series mostly up to 57 µM
In short: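 qHTS (up to 57 uM final) was run with 24 h compound exposure of reporter cells at 37 °C. Each well was multiplexed: SteadyGlo luminescence measured ATXN2-luciferase expression after a fluorogenic Gly-Phe-AFC viability readout (25 uM final).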
For COc1cn(-c2ccccc2)nc1C(=O)Nc1ccc(C)cc1, the Potency was “inactive”.
With O=CNc1cc(-c2ccc(C(=O)NC3CC3)cc2)cn2c(-c3ccc(F)cc3)cnc12 the Potency was inconclusive: 15.8 µM [inhibitor, partial curve, poor fit].
With CN(C(=O)c1cccc(NC(=O)Cc2cccc(NC(=O)C3CCCN(C(=O)CCc4ccccc4)C3)c2)c1)C1CCC1 (centres undefined) the Potency was inconclusive: 25.1 µM [inhibitor, single point].
With O=C(CSc1nc2ccccc2c(=O)n1CCCN1CCOCC1)Nc1ccc(Br)cc1 the Potency was inconclusive: 20 µM [inhibitor, partial curve].
In the case of Cn1c2c(c(=O)[nH]c1=O)C(c1cccc(O)c1)C1=C(N2)c2ccccc2C1=O (centres undefined), the Potency was inconclusive: 7.94 µM [inhibitor, full curve, poor fit].
For CC(=O)Nc1ccc(NC(=O)C2CC(=O)Nc3nc4ccccc4n32)cc1 (centres undefined), the Potency was inconclusive: 39.8 µM [inhibitor, single point].
For CCCn1c(=O)c(C(=O)NNC(=O)c2cccc([N+](=O)[O-])c2)c(O)c2ccccc21, the Potency was inconclusive: 12.6 µM [inhibitor, partial curve, poor fit].
With C[C@@H]1CN([C@@H](C)CO)C(=O)c2cc(Br)cnc2O[C@H]1CN(C)Cc1cccnc1 the Potency was “inactive”.
With CCN(C(=O)c1oc2ccc(S(=O)(=O)N3CCCCCC3)cc2c1C)c1ccccc1 the Potency was inconclusive: 28.2 µM [inhibitor, single point].
For O=C1C(=O)N(C2CCN(S(=O)(=O)c3ccc(F)cc3)CC2)CCN1Cc1ccccc1, the Potency was “inactive”.
With COc1nc(Cc2ccc(Cl)cc2)nc2ccccc12 the Potency was “inactive”.
With CCN(CC)S(=O)(=O)c1cc(NC(=O)C(C)OC(=O)c2[nH]c(C)c(C(C)=O)c2C)ccc1C (centres undefined) the Potency was “inactive”.
With CC(=O)Nc1ccc(C(=O)N/N=C/c2cc(Br)cc(Br)c2O)cc1 the Potency was active: 25.1 µM.
With COc1cc(NS(C)(=O)=O)ccc1Nc1c2ccccc2nc2ccccc12 the Potency was active: 0.251 µM.
For O=C1N(CN2CCC3(CC2)OCCO3)c2ccccc2C12OCCCO2, the Potency was “inactive”.
For COc1ccc(OCCCN(C)Cc2ccccc2)cc1, the Potency was “inactive”.
In the case of Cc1ccc2[nH]c3nc(SCC#N)nnc3c2c1, the Potency was inconclusive: 22.4 µM [inhibitor, partial curve, poor fit].
With COc1ccc(-c2csc(NC(=O)C3CCN(c4ncnc5sc(C)c(C)c45)CC3)n2)cc1OC the Potency was active: 7.94 µM.
With COc1ccc(C(=O)CCC(=O)N2CCN(c3cc(C)ccc3C)CC2)cc1 the Potency was inconclusive: 28.2 µM [inhibitor, single point].
